Reference: ChEMBL document CHEMBL4888484, “Replenishing the malaria drug discovery pipeline: Screening and hit evaluation of the MMV Hit Generation Library 1 (HGL1) against asexual blood stage Plasmodium falciparum ,using a nano luciferase reporter read-out” (2022)
Hit rate of the full screen: of about 150,000 compounds, about 540 (0.36%) showed an effect of 50% or more. Some of the results follow.

What follows are compounds tested on Plasmodium falciparum (assay: Primary screen in NF54 nanoGlo assay, in single point, at 2uM, 72h; a lower Z score goes with more inhibition). Details: timepoint 72 hour.
Assay type: functional, Erythrocyte
CN(C(=O)Cn1cccc(S(=O)(=O)N2CCCCC2)c1=O)c1ccc(F)cc1 was tested, and the “% Inhibition” value was -2% and the Z score was 0.37.
O=C(Nc1nc2ccccc2s1)N1CCCCCC1 was tested, and the “% Inhibition” value was -16% and the Z score was 2.45.
With CC(=O)N1CCN(C(=O)c2nn(-c3ccc(C(C)C)cc3)c(=O)n(Cc3cccc(C)c3)c2=O)CC1 the “% Inhibition” value was -7% and the Z score was 0.96.
In the case of Cn1c(C(=O)N2CCOCC2)cc2cc(S(=O)(=O)N3CCCCC3)ccc21, the “% Inhibition” value is reported as -12% and the Z score is reported as 2.31.
In the case of O=C(NCCc1ccc(Cl)s1)c1cnccn1, the “% Inhibition” value is reported as -13% and the Z score is reported as 2.48.
CCc1ccccc1NC(=O)N1CC(F)(F)C[C@H]1CN1CCCCC1 was tested, and the “% Inhibition” value was -14% and the Z score was 2.44.
O=C(NC[C@H]1CCCO1)c1coc(CN2CCN(c3ncccn3)CC2)n1 was tested, and the “% Inhibition” value was 2% and the Z score was -0.28.
In the case of C[C@@H](Cc1cccs1)C(=O)N1CCC(Nc2cccnc2)CC1, the “% Inhibition” value is reported as -17% and the Z score is reported as 1.44.
In the case of Cc1ccc(C(=O)N[C@@H](Cc2c[nH]c3ccccc23)C(=O)O)cc1F, the “% Inhibition” value is reported as -8% and the Z score is reported as 1.49.
With c1ccc(CNc2cc(-c3ccccc3)nc(-c3ccccc3)n2)cc1 the “% Inhibition” value was -9% and the Z score was 1.22.
In the case of Cc1nc(C2CCC2)nn1Cc1cnn(-c2ccccc2)n1, the “% Inhibition” value is reported as -21% and the Z score is reported as 2.36.
O=C(c1cnc(O)cn1)N1C[C@@H]2CC[C@H]1CN(CCCc1ccccc1)C2 was tested, and the “% Inhibition” value was 6% and the Z score was -0.82.
For CC(C)N1CCCC[C@@H]1CCNC(=O)CCC(F)(F)F, the “% Inhibition” value was -3% and the Z score was 0.57.
Cc1nc(N)nc(N2CCN(Cc3ccco3)CC2)c1CCC(=O)O was tested, and the “% Inhibition” value was -6% and the Z score was 1.13.
For Cc1ccc(CN(CCO)C(=O)c2cccc3c2CCOC3)o1, the “% Inhibition” value was -15% and the Z score was 2.09.
With CN1CCO[C@H](C(=O)Nc2cc(-c3c(F)cccc3F)no2)C1 the “% Inhibition” value was -6% and the Z score was 0.69.
CCN(Cc1ccncc1)[C@@H](C(=O)O)c1ccc(OC(C)C)cc1 was tested, and the “% Inhibition” value was -15% and the Z score was 2.
For COc1ccc(CS(=O)(=O)Cc2nccn2C)c(Cl)c1, the “% Inhibition” value was -6% and the Z score was 0.62.
For Cc1ccccc1N1C(=O)C2C(O)CCCN2C1=O (stereo not given), the “% Inhibition” value was 5% and the Z score was -0.59.
With N[C@@H]1C[C@@H]2CC(C(=O)NCC3CCC=CCC3)C[C@@H]21 (stereo not given in full) the “% Inhibition” value was -3% and the Z score was 0.65.
In the case of Cc1cnccc1C(=O)NC[C@@H]1C[C@H]1c1cccnc1, the “% Inhibition” value is reported as -14% and the Z score is reported as 1.85.
With CC(NC(=O)C1COCCO1)c1cccc(-n2cccn2)c1 (stereo not given) the “% Inhibition” value was -18% and the Z score was 3.59.
In the case of O=C1O[C@@H]2C[C@H]3C[C@@H]2[C@@H]1[C@H]3C(=O)Nc1cccc(C(=O)N2CCN(c3ccccc3F)CC2)c1, the “% Inhibition” value is reported as -6% and the Z score is reported as 1.16.
For N#CCCN1CC[C@H](OCCCc2ccccc2)C1, the “% Inhibition” value was -5% and the Z score was 0.64.
In the case of Cc1ccsc1C(=O)N1CCC[C@H]1c1ccc2c(c1)OCCCO2, the “% Inhibition” value is reported as 1% and the Z score is reported as -0.07.
C[C@H](NCc1cc(F)c(O)c(F)c1)c1ccccc1N1CCOCC1 was tested, and the “% Inhibition” value was 10% and the Z score was -1.14.
For CC1(CO)CCCC1NCc1cnc(N2CCOCC2)nc1 (stereo not given), the “% Inhibition” value was 33% and the Z score was -0.35.
In the case of CC(=O)c1ccc(NC(=O)c2cc3n(n2)CCCO3)cc1, the “% Inhibition” value is reported as -7% and the Z score is reported as 1.13.
For COc1cccc(-c2nc(C3CCN(C(=O)c4cccc(OC)c4OC)CC3)no2)c1, the “% Inhibition” value was -9% and the Z score was 1.14.
O=C(Nc1nc2cc3c(cc2s1)OCCO3)C1CCCCC1 was tested, and the “% Inhibition” value was -6% and the Z score was 0.9.
With CN(C(=O)c1c(F)c(F)cc(F)c1F)c1ccnn1C the “% Inhibition” value was -18% and the Z score was 1.86.
For Cn1cc(CCC(=O)N2CC3(CCCC3)c3cccc(Cl)c32)cn1, the “% Inhibition” value was -4% and the Z score was 0.69.
With O=C1CCCN1CCC(=O)N1CCO[C@@H](Cc2ccccc2Cl)C1 the “% Inhibition” value was -10% and the Z score was 1.45.
In the case of CN(C(=O)[C@H]1CCCOC1)c1ccnn1C, the “% Inhibition” value is reported as -4% and the Z score is reported as 0.62.
Cc1nnsc1CNC(=O)[C@H](O)c1ccccc1Cl was tested, and the “% Inhibition” value was -2% and the Z score was 0.48.
With COc1ccccc1CN1CCC[C@H]1c1nc(-c2ccc(F)cn2)no1 the “% Inhibition” value was 11% and the Z score was -1.24.
For Cc1ncsc1CCN(C)Cc1ccc(-c2ccccc2C#N)o1, the “% Inhibition” value was -14% and the Z score was 1.32.
With Cc1nnnn1CCOc1cc(F)cc(Br)c1 the “% Inhibition” value was 2% and the Z score was -0.15.
For Cc1ccc(-c2ncco2)cc1NC(=O)N[C@H](C(N)=O)C(C)(C)C, the “% Inhibition” value was -2% and the Z score was 0.41.
Cc1cc(C(=O)N(C)Cc2nccn2C)cc(O)n1 was tested, and the “% Inhibition” value was -2% and the Z score was 0.31.
In the case of N#Cc1nc(NC(=O)Cc2cccc(F)c2)[nH]c1C#N, the “% Inhibition” value is reported as -4% and the Z score is reported as 0.38.
With CCc1cc(C(=O)N2[C@@H]3CC[C@H]2C[C@@H](c2ccc(OC)cc2)C3)ccn1 the “% Inhibition” value was -12% and the Z score was 1.49.
c1cc2cc(-c3ccc(CN4CCCC4)cn3)ccc2[nH]1 was tested, and the “% Inhibition” value was -1% and the Z score was 0.18.
COc1ccccc1OCC(=O)N(Cc1ccccn1)c1nc2c(OC)ccc(C)c2s1 was tested, and the “% Inhibition” value was -1% and the Z score was 0.24.
CS(=O)(=O)c1cccc(OCCN2CCCc3c(C(N)=O)cccc32)c1 was tested, and the “% Inhibition” value was -10% and the Z score was 1.04.
COC(=O)c1cc(N(C)C)nc(C)c1C(=O)OC was tested, and the “% Inhibition” value was -9% and the Z score was 1.87.
For CCN(CC)c1ccc2c(c1)CCCN2, the “% Inhibition” value was 1% and the Z score was -0.09.
With Cc1nc2nc(-c3ccc(C(C)(C)C)cc3)nn2c(C)c1CC(=O)N1CCCCCC1 the “% Inhibition” value was -4% and the Z score was 0.65.
With CCCn1ncnc1[C@H](C)Nc1cc(-c2ccccc2F)nc2ccnn12 the “% Inhibition” value was -16% and the Z score was 2.45.
CC(C)(C)CCN1CC2(C1)CN(C(=O)Nc1ccccc1)C[C@@H]1COCCN12 was tested, and the “% Inhibition” value was 35% and the Z score was -3.96.
For Cc1ccc(C(=O)NC[C@](C)(O)C(F)(F)F)c(=O)[nH]1, the “% Inhibition” value was -9% and the Z score was 1.48.
For O=C(c1ccc(F)c(F)c1)N1C2CCC1CC(n1nccn1)C2 (stereo not given), the “% Inhibition” value was -8% and the Z score was 1.51.
CN(C)C(=O)N1CCC(CNC(=O)CC(C)(C)C)CC1 was tested, and the “% Inhibition” value was -3% and the Z score was 0.36.
For Cc1nnc(Cn2nnc(Cc3ccc(Cl)c(Cl)c3)n2)o1, the “% Inhibition” value was -3% and the Z score was 0.38.
For CC1CCN(C(=O)C(=O)NC2CC2)C2CCCCC12 (stereo not given), the “% Inhibition” value was -9% and the Z score was 1.47.
